Measured values from the supplement of paper PMC8728848.
Some of the results follow.

Key:
Test in all cases: glycan array binding signal (z-score within array); higher = stronger binding
Conditions in all cases: glycan notation: IUPAC condensed, linker removed
[1] = molecular target: Fuc(a1-2)Gal
How it was run: (§1)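 From the Consortium for Functional Glycomics database, 3228 arrays were curated, keeping only those whose protein sequence was available. Binding is given as a within-array Z-score averaged across arrays sharing a protein sequence and across linkers. Negative Z-scores can be read as non-binding.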

[2] = molecular target: Fuc(a1-2)Gal(b1-3)GalNAc
How it was run: as §1

[3] = molecular target: Fuc(a1-2)Gal(b1-3)GalNAc(b1-3)Gal
How it was run: as §1

[4] = molecular target: Fuc(a1-2)Gal(b1-3)GalNAc(b1-3)Gal(a1-4)Gal(b1-4)Glc
How it was run: as §1

[5] = molecular target: Fuc(a1-2)Gal(b1-3)GalNAc(b1-4)[Neu5Ac(a2-3)]Gal(b1-4)Glc
How it was run: as §1

[6] = molecular target: Fuc(a1-2)Gal(b1-3)GlcNAc
How it was run: as §1

[7] = molecular target: Fuc(a1-2)Gal(b1-3)GlcNAc(b1-3)Gal(b1-4)Glc
How it was run: as §1

[8] = molecular target: Fuc(a1-2)Gal(b1-3)[Fuc(a1-4)]GlcNAc
How it was run: as §1

[9] = molecular target: Fuc(a1-2)Gal(b1-4)Glc
How it was run: as §1

[10] = molecular target: Fuc(a1-2)Gal(b1-4)GlcNAc
How it was run: as §1

[11] = molecular target: Fuc(a1-2)Gal(b1-4)GlcNAc(b1-3)Gal(b1-4)GlcNAc
How it was run: as §1

[12] = molecular target: Fuc(a1-2)Gal(b1-4)GlcNAc(b1-3)Gal(b1-4)GlcNAc(b1-3)Gal(b1-4)GlcNAc
How it was run: as §1

[13] = molecular target: Fuc(a1-2)Gal(b1-4)[Fuc(a1-3)]GlcNAc
How it was run: as §1

[14] = molecular target: Fuc(a1-2)Gal(b1-4)[Fuc(a1-3)]GlcNAc(b1-3)Gal(b1-4)[Fuc(a1-3)]GlcNAc
How it was run: as §1

[15] = molecular target: Fuc(a1-2)Gal(b1-4)[Fuc(a1-3)]GlcNAc(b1-3)Gal(b1-4)[Fuc(a1-3)]GlcNAc(b1-3)Gal(b1-4)[Fuc(a1-3)]GlcNAc
How it was run: as §1

[16] = molecular target: Fuc(a1-2)GlcNAc
How it was run: as §1

[17] = molecular target: Fuc(a1-2)[Gal(a1-3)]Gal
How it was run: as §1

[18] = molecular target: Fuc(a1-2)[Gal(a1-3)]Gal(b1-3)GlcNAc
How it was run: as §1

[19] = molecular target: Fuc(a1-2)[Gal(a1-3)]Gal(b1-4)Glc
How it was run: as §1

[20] = molecular target: Fuc(a1-2)[Gal(a1-3)]Gal(b1-4)GlcNAc
How it was run: as §1

[21] = molecular target: Fuc(a1-2)[Gal(a1-3)]Gal(b1-4)[Fuc(a1-3)]GlcNAc
How it was run: as §1

[22] = molecular target: Fuc(a1-2)[Gal(a1-4)]Gal(b1-4)GlcNAc
How it was run: as §1

[23] = molecular target: Fuc(a1-2)[GalNAc(a1-3)]Gal
How it was run: as §1

[24] = molecular target: Fuc(a1-2)[GalNAc(a1-3)]Gal(b1-3)GlcNAc
How it was run: as §1

[25] = molecular target: Fuc(a1-2)[GalNAc(a1-3)]Gal(b1-4)Glc
How it was run: as §1

[26] = molecular target: Fuc(a1-2)[GalNAc(a1-3)]Gal(b1-4)GlcNAc
How it was run: as §1

[27] = molecular target: Fuc(a1-2)[GalNAc(a1-3)]Gal(b1-4)[Fuc(a1-3)]GlcNAc
How it was run: as §1

[28] = molecular target: Fuc(a1-2)[GalNAc(a1-4)]Gal(b1-4)GlcNAc
How it was run: as §1

[29] = molecular target: Fuc(a1-2)[GalNAc(b1-3)]Gal
How it was run: as §1

[30] = molecular target: Fuc(a1-3)GlcNAc
How it was run: as §1

[31] = molecular target: Fuc(a1-3)[Gal(b1-4)]GlcNAc
How it was run: as §1

[32] = molecular target: Fuc(a1-3)[Gal(b1-4)]GlcNAc(b1-4)Gal(b1-4)[Fuc(a1-3)]GlcNAc
How it was run: as §1

[33] = molecular target: Fuc(a1-3)[Gal(b1-4)]GlcNAc(b1-4)Gal(b1-4)[Fuc(a1-3)]GlcNAc(b1-4)Gal(b1-4)[Fuc(a1-3)]GlcNAc
How it was run: as §1

[34] = molecular target: Fuc(a1-3)[Gal3S(b1-4)]GlcNAc
How it was run: as §1

[35] = molecular target: Fuc(a1-3)[GalNAc(b1-4)]GlcNAc
How it was run: as §1

[36] = molecular target: Fuc(a1-4)GlcNAc
How it was run: as §1

[37] = molecular target: Fuc(b1-3)GlcNAc
How it was run: as §1

[38] = molecular target: Gal(a1-2)Gal
How it was run: as §1

[39] = molecular target: Gal(a1-3)Gal
How it was run: as §1

[40] = molecular target: Gal(a1-3)Gal(b1-3)GlcNAc
How it was run: as §1

[41] = molecular target: Gal(a1-3)Gal(b1-4)Glc
How it was run: as §1

[42] = molecular target: Gal(a1-3)Gal(b1-4)GlcNAc
How it was run: as §1

[43] = molecular target: Gal(a1-3)Gal(b1-4)[Fuc(a1-3)]GlcNAc
How it was run: as §1

[44] = molecular target: Gal(a1-3)GalNAc
How it was run: as §1

[45] = molecular target: Gal(a1-3)[Gal(a1-4)]Gal(b1-4)GlcNAc
How it was run: as §1

[46] = molecular target: Gal(a1-4)Gal(b1-4)Glc
How it was run: as §1

[47] = molecular target: Gal(a1-4)Gal(b1-4)GlcNAc
How it was run: as §1

[48] = molecular target: Gal(a1-4)GlcNAc
How it was run: as §1

[49] = molecular target: Gal(a1-6)Glc
How it was run: as §1

[50] = molecular target: Gal(b1-2)Gal
How it was run: as §1

[51] = molecular target: Gal(b1-3)Gal
How it was run: as §1

[52] = molecular target: Gal(b1-3)GalNAc
How it was run: as §1

[53] = molecular target: Gal(b1-3)GalNAc(b1-3)Gal(a1-4)Gal(b1-4)Glc
How it was run: as §1

[54] = molecular target: Gal(b1-3)GalNAc(b1-4)Gal(b1-4)Glc
How it was run: as §1

[55] = molecular target: Gal(b1-3)GalNAc(b1-4)[Neu5Ac(a2-3)]Gal(b1-4)Glc
How it was run: as §1

[56] = molecular target: Gal(b1-3)GlcNAc
How it was run: as §1

[57] = molecular target: Gal(b1-3)GlcNAc(b1-3)Gal(b1-4)Glc
How it was run: as §1

[58] = molecular target: Gal(b1-3)GlcNAc(b1-3)Gal(b1-4)GlcNAc
How it was run: as §1

[59] = molecular target: Gal(b1-3)[Fuc(a1-4)]GlcNAc
How it was run: as §1

[60] = molecular target: Gal(b1-3)[Fuc(a1-4)]GlcNAc(b1-3)Gal(b1-4)GlcNAc
How it was run: as §1

B1: RSVL (Crotalus atrox), P21963 (protein)
chain: NNCPLDWLPMNGLCYKIFNQLKTWEDAEMFCRKYKPGCHLASFHRYGESLEIAEYISDYHKGQENVWIGLRDKKKDFSWEWTDRSCTDYLTWDKNQPDHYQNKEFCVELVSLTGYRLWNDQVCESKDAFLCQCKF
[1]
  glycan array binding signal (z-score): -0.366
[2]
  glycan array binding signal (z-score): -0.363
[3]
  glycan array binding signal (z-score): -0.328
[4]
  glycan array binding signal (z-score): -0.367
[5]
  glycan array binding signal (z-score): -0.362
[6]
  glycan array binding signal (z-score): -0.349
[7]
  glycan array binding signal (z-score): -0.367
[8]
  glycan array binding signal (z-score): -0.364
[9]
  glycan array binding signal (z-score): -0.366
[10]
  glycan array binding signal (z-score): -0.365
[11]
  glycan array binding signal (z-score): -0.363
[12]
  glycan array binding signal (z-score): -0.36
[13]
  glycan array binding signal (z-score): -0.366
[14]
  glycan array binding signal (z-score): -0.367
[15]
  glycan array binding signal (z-score): -0.366
[16]
  glycan array binding signal (z-score): -0.364
[17]
  glycan array binding signal (z-score): -0.367
[18]
  glycan array binding signal (z-score): -0.367
[19]
  glycan array binding signal (z-score): -0.35
[20]
  glycan array binding signal (z-score): -0.367
[21]
  glycan array binding signal (z-score): -0.361
[22]
  glycan array binding signal (z-score): -0.352
[23]
  glycan array binding signal (z-score): 1.79
[24]
  glycan array binding signal (z-score): 1.34
[25]
  glycan array binding signal (z-score): 1.84
[26]
  glycan array binding signal (z-score): 2.38
[27]
  glycan array binding signal (z-score): -0.047
[28]
  glycan array binding signal (z-score): 1.5
[29]
  glycan array binding signal (z-score): -0.106
[30]
  glycan array binding signal (z-score): -0.364
[31]
  glycan array binding signal (z-score): -0.358
[32]
  glycan array binding signal (z-score): -0.367
[33]
  glycan array binding signal (z-score): -0.349
[34]
  glycan array binding signal (z-score): -0.364
[35]
  glycan array binding signal (z-score): -0.367
[36]
  glycan array binding signal (z-score): 0.078
[37]
  glycan array binding signal (z-score): -0.366
[38]
  glycan array binding signal (z-score): -0.349
[39]
  glycan array binding signal (z-score): 0.555
[40]
  glycan array binding signal (z-score): 0.678
[41]
  glycan array binding signal (z-score): 1.03
[42]
  glycan array binding signal (z-score): 1.68
[43]
  glycan array binding signal (z-score): 2.4
[44]
  glycan array binding signal (z-score): 2.94
[45]
  glycan array binding signal (z-score): 5.83
[46]
  glycan array binding signal (z-score): -0.362
[47]
  glycan array binding signal (z-score): -0.337
[48]
  glycan array binding signal (z-score): -0.012
[49]
  glycan array binding signal (z-score): -0.368
[50]
  glycan array binding signal (z-score): -0.356
[51]
  glycan array binding signal (z-score): 0.092
[52]
  glycan array binding signal (z-score): 0.264
[53]
  glycan array binding signal (z-score): 0.117
[54]
  glycan array binding signal (z-score): -0.359
[55]
  glycan array binding signal (z-score): -0.344
[56]
  glycan array binding signal (z-score): -0.274
[57]
  glycan array binding signal (z-score): -0.299
[58]
  glycan array binding signal (z-score): -0.3
[59]
  glycan array binding signal (z-score): -0.365
[60]
  glycan array binding signal (z-score): -0.168
